The whole screen tested about 200,000 compounds, of which about 25 (0.01%) were called active. Not shown: some 23% with an inconclusive outcome. Calls come from the whole dose curve; as a rule, active = well fitted inhibition curve with a large enough effect in the signal ratio, with a control signal flat (not every such curve was filed as active); inconclusive = small, poorly fitted or top-dose-only effect, or effect the other way, or a change in a side signal; inactive = flat fitted curve, though single readings scatter; the % refers to the signal ratio. Only a part is listed here, and it is no random draw.
% is set by controls: 0 for no effect and ±100 for the full control effect; potency is the fitted concentration of half-maximal effect.

The nature of the experiment: qHTS Assay for Modulators of Lamin A Splicing. The note with it: HeLa LMNA splicing GFP/RFP minigene ratio, 48 h; series mostly up to 46.1 µM; ratio change, negative = inhibition: at the top concentration. The procedure, abridged: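 S3 HeLa cells stably expressing lamin A-EGFP splicing minigene plus DsRed2, 600 cells/well, 48 h compound exposure at 37C. Laser-scanning cytometry; analysed as GFP (500-530 nm)/RFP (575-640 nm) total intensity ratio; 0.5% DMSO vehicle.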
For orientation: In qHTS, concentration-response curves come from the screen itself.
Turning to `Nc1ccn(C2OC(CO)C(O)C2O)c(=O)n1` (stereo not given), the “ratio change, negative = inhibition” value was inactive: -9.96%.

Regarding `COC(=O)/C(=C1/Oc2ccc(C(C)(C)C)cc2S1)C(F)(F)F`, the “ratio change, negative = inhibition” value was inactive: -13.5%.

For the compound `C[C@@H]1CCC[C@H](C)N1NC(=O)c1ccc(Cl)c(S(N)(=O)=O)c1`, the “ratio change, negative = inhibition” value is inactive: -15%.

With `Nc1ccc(S(=O)(=O)Nc2nccs2)cc1`, the “ratio change, negative = inhibition” value is inactive: -7.66%.

For `O=C(NC[C@@H]1CCCCN1)c1cc(OCC(F)(F)F)ccc1OCC(F)(F)F`, the “ratio change, negative = inhibition” value was inactive: -11%.

`CC(NC(=O)c1cc2ccccc2o1)c1ccccc1` (stereo not given): the “ratio change, negative = inhibition” value was inactive: 3.22% [at 46 µM].

As for `Cc1cccc(NC(=O)CSc2nc3ccccc3c3nc(CCc4c(C)n[nH]c4C)nn23)c1`, the “ratio change, negative = inhibition” value is inactive: -2.35%.

On to `CC1(C)SC2C(NC(=O)COc3ccccc3)C(=O)N2C1C(=O)O` (stereo not given), for which the “ratio change, negative = inhibition” value was inactive: 11.8% [at 46 µM].

On to `COc1ccc(Cl)cc1C(=O)NCCc1ccc(S(=O)(=O)NC(=O)NC2CCCCC2)cc1`, for which the “ratio change, negative = inhibition” value is inactive: -18.3%.

Take `O=C(O)C1=CC(=C(c2ccc(O)c(C(=O)O)c2)c2ccc(O)c(C(=O)O)c2)C=CC1=O`: the “ratio change, negative = inhibition” value was inactive: -3.58%.

As to `Cc1[nH]c(=O)[nH]c(=O)c1S(=O)(=O)N1CCN(c2cccc(Cl)c2)CC1`, the “ratio change, negative = inhibition” value is inactive: 2.3%.

As for `CCOC(=O)N1CCN(c2ccc(O)cc2)CC1`, the Potency is active: 12.6 µM.

`CCC(C)C(=O)OC1CC(C)C=C2C=CC(C)C(CCC3CC(O)CC(=O)O3)C21` (stereo not given): the “ratio change, negative = inhibition” value was inactive: -5.13%.

With `CCN(CC)CCOCCOC(=O)C1(c2ccccc2)CCCC1`, the “ratio change, negative = inhibition” value is inactive: -25%.

For `C[C@@H]1C[C@H]2[C@@H]3CCC4=CC(=O)C=C[C@]4(C)[C@@]3(F)[C@@H](O)C[C@]2(C)[C@H]1C(=O)CO`, the “ratio change, negative = inhibition” value is inactive: -5.55%.

As to `N[C@H]1CONC1=O`, the “ratio change, negative = inhibition” value was inactive: -19.5%.

`CC(Oc1ccccc1)C(=O)NC1C(=O)N2C(C(=O)O)C(C)(C)S[C@@H]12` (stereo not given in full): the “ratio change, negative = inhibition” value is inactive: -2.64%.

As to `CCCNC(=O)NS(=O)(=O)c1ccc(Cl)cc1`, the Potency result is “inactive”.

Consider `CC(=O)c1cc(-c2ccccc2)n(CC(=O)Nc2ccc(C)c(C)c2)c1C`, for which the “ratio change, negative = inhibition” value is inactive: 1.74%.

Consider `Clc1cccc(Cl)c1NC1=NCCN1`, for which the “ratio change, negative = inhibition” value was inactive: -27.5%.

For `Nc1nc2c(ncn2COC(CO)CO)c(=O)[nH]1`, the Potency result was “inactive”.

Consider `CNCCc1ccccn1`, for which the “ratio change, negative = inhibition” value was inactive: -4.62%.

For the compound `O=C(c1ccc(F)cc1)C1CCN(CCn2c(=O)[nH]c3ccccc3c2=O)CC1`, the “ratio change, negative = inhibition” value is inactive: -2.35%.

As to `Cc1occc1C(=O)N/N=C/C=C/c1ccccc1[N+](=O)[O-]`, the “ratio change, negative = inhibition” value was inactive: 20.6% [at 46 µM].

In the case of `CCS(=O)(=O)NCC(c1ccco1)N1CCN(c2ccc(F)cc2)CC1` (stereo not given), the “ratio change, negative = inhibition” value was inactive: 4.18%.

For `NC1(C(=O)O)CC1`, the “ratio change, negative = inhibition” value was inactive: -7.46%.

For the compound `O=C1NCC2(CCN(CCc3ccccc3)CC2)O1`, the “ratio change, negative = inhibition” value is inactive: -17.1%.

For the compound `C[C@@](Cc1ccc(O)c(O)c1)(NN)C(=O)O`, the Potency entry is “inactive”.

As for `CC1(C)SC2[C@H](NC(=O)C(NC(=O)N3CCNC3=O)c3ccccc3)C(=O)N2C1C(=O)O` (stereo not given in full), the “ratio change, negative = inhibition” value is inactive: -6.7%.

For `Cc1ccc(CSCC(=O)N2CCN(c3ccc(F)cc3)CC2)cc1`, the “ratio change, negative = inhibition” value was inactive: -6.99% [at 46 µM].

`COc1ccc(CCNC(=O)CCCCCn2c(SCC(N)=O)nc3cc4c(cc3c2=O)OCO4)cc1OC`: the “ratio change, negative = inhibition” value is inactive: 15.6% [at 46 µM].

As for `CC1=NS(=O)(=O)c2cc(Cl)ccc2N1`, the Potency result is “inactive”.

Regarding `CC(C)NCC(O)COc1ccc(CC(N)=O)cc1` (stereo not given), the “ratio change, negative = inhibition” value is inactive: -3.21%.

For the compound `COc1ccc(/C=C\C(=O)c2c(O)ccc3c(C)cc(=O)oc23)cc1`, the “ratio change, negative = inhibition” value was inactive: -2.09%.

As to `Cn1cc[nH]c1=S`, the “ratio change, negative = inhibition” value was inactive: -2.36%.

These data come from PubChem BioAssay AID1487 (National Center for Advancing Translational Sciences (NCATS), 2009).
